Measurements reported in paper PMC5006001.
These are yes or no findings as the source states them, for the method shown. For some assays here: In cells and extracts the contact can be indirect. Some binding calls cover weakened binding; strength is not graded here. For some assays here: Sequences can lack the tags named with a protein. Blank lines part the entries; values can stand above or below the binder they belong to.

Tests used:
[1] = molecular target: T1, Trf2 tagged on its C-terminus with a 6xHis-Tev-3xFlag tag (mouse (endogenous in testis, knock-in allele)), P62340; assay: co-IP; anti-Flag immunoprecipitation from cytoplasmic extracts of heterozygous Trf2tag/+ and WT testis; immunoblot for tagged and native Trf2; conditions: remark: other sources report otherwise
T1 chain: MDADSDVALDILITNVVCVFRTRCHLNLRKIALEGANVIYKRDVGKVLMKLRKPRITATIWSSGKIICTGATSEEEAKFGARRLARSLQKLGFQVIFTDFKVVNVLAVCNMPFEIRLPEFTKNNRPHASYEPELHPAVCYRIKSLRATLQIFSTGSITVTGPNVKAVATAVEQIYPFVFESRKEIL

[2] = molecular target: T2, TFIIA (mouse (endogenous in testis)) (UniProt Q99PM3+Q80ZM7); assay: SEC; gel filtration of testis cytoplasmic extract (5-10 mg protein) on Superose 6 (10/300), 0.4 ml/min, 100 mM KCl (also up to 0,5 M KCl); fractions analysed by western blot
T2 sequence 1: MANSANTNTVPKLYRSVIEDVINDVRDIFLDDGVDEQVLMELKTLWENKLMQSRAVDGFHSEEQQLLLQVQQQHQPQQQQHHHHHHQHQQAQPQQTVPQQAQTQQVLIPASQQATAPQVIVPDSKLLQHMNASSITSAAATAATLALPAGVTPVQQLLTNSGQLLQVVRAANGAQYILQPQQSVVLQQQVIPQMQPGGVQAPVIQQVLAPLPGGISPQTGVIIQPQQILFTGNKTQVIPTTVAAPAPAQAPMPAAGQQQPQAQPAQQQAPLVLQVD
T2 sequence 2: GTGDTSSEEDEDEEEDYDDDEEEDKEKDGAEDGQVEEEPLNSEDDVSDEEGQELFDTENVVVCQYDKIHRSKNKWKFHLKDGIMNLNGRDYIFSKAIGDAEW
T2 sequence 3: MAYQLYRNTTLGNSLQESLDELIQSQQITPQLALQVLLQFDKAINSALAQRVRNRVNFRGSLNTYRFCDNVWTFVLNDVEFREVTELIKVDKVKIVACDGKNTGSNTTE

[3] = molecular target: T3, Trf2 tagged on its C-terminus with a 6xHis-Tev-3xFlag tag (mouse (endogenous in testis, knock-in allele)) (UniProt P62340); assay: co-IP; anti-Flag M2 resin on MNase digested chromatin from formaldehyde cross-linked testis; immunoblot; Trf2-/- testis as control
T3 sequence: T1 chain

[4] = molecular target: T4, ALF (TFIIA-like factor) (mouse (endogenous in testis)) (UniProt Q8R4I4); assay: co-IP; sequential: proteins eluted from the anti-Flag IP of Trf2tag/+ testis extract were reprecipitated with ALF antibody; immunoblot
T4 sequence: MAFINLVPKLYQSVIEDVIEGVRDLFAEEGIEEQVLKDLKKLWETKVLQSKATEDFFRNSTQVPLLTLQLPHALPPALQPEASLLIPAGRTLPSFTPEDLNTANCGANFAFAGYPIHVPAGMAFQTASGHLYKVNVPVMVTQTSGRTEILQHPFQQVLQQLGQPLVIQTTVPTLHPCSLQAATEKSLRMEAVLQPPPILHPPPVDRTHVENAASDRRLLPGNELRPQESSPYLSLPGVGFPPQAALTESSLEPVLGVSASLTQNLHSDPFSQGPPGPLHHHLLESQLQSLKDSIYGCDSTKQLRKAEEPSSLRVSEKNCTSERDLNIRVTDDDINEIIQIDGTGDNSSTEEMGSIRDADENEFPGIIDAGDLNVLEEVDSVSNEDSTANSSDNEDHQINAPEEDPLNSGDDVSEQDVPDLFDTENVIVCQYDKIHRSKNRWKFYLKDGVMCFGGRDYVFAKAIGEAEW

[5] = molecular target: T3, Trf2 tagged on its C-terminus with a 6xHis-Tev-3xFlag tag (mouse (endogenous in testis, knock-in allele)); assay: SEC; gel filtration of testis cytoplasmic extract (5-10 mg protein) on Superose 6 (10/300), 0.4 ml/min, 100 mM KCl (also up to 0,5 M KCl); fractions analysed by western blot
[6] = molecular target: T3, Trf2 tagged on its C-terminus with a 6xHis-Tev-3xFlag tag (mouse (endogenous in testis, knock-in allele)); assay: co-IP; tandem affinity purification of tagged Trf2 from pooled gel filtration fractions B3-B7 of testis cytoplasmic extract: anti-Flag M2-agarose, Flag peptide elution, Talon resin, elution with 0.1 M EDTA; immunoblot; WT testis as control
[7] = molecular target: T3, Trf2 tagged on its C-terminus with a 6xHis-Tev-3xFlag tag (mouse (endogenous in testis, knock-in allele)); assay: co-IP; sequential: proteins eluted from the anti-Flag IP of Trf2tag/+ testis extract were reprecipitated with ALF antibody; immunoblot

B2: Taf7l (protein, UniProt Q9D3R9 1-471)
chain: MERGEEAPTEGAPPEGALVEAKAPVIPEAPATDVSTTEEAGSKEPQVPSGPRPEGAGDTCDTRGARGPPTPGRAKSQKTPRQGTARCQTLESAMRSMSVRLECHDVEEQFILRLPPEQAYAVRKIIHSRNAAWKDKLKIDFSPDGHHAVVQVDNVSLPAKLVNLPCVIGSLKTIDRKTFYKTADVSQMLVCSPEGEPHSPPEEPVVSTGPTVIGISEGKAERKKYNWKHGITPPLKNVRKKRFRKTTKKLPDVKQVDEINFSEYTQSPSVEKEVKRLLYSDAEAVSVRWEVVDDDDAKEIESQGSMPTTPGISQMGGASLSDYDVFREMMGDSGSNSNDVEEKSNEGDDDDDEDEDDEDYGNEKEEEETDNSEEELEKELQAKFNEFSLHEADQDYSSITMAIQKLIFIKEKRLQMIYKKAQRQKELLRKVENLTLKRHFQNVLGKLNIMEKEKCEQIYHLQEQLKCFLKE
- binding [2]: no binding

B4: TFIIA (complex, UniProt Q99PM3 1-276; Q99PM3 277-378; Q80ZM7 1-109)
chain 1: T2 sequence 1
chain 2: T2 sequence 2
chain 3: T2 sequence 3
- binding [3]: binds
- binding [4]: no binding
- binding [5]: binds
- binding [6]: binds

B5: ALF (TFIIA-like factor) (protein, UniProt Q8R4I4 1-468)
chain: T4 sequence
- binding [3]: binds
- binding [7]: binds
- binding [5]: binds
- binding [6]: binds

Other lines, results leading:

- binding [1]: no binding
B1: Trf2 tagged on its C-terminus with a 6xHis-Tev-3xFlag tag, P62340 1-186 (protein)
chain: T1 chain

- binding [2]: no binding
B3: Tbp (TATA-binding protein) (protein, UniProt P29037 1-316)
chain: MDQNNSLPPYAQGLASPQGAMTPGIPIFSPMMPYGTGLTPQPIQNTNSLSILEEQQRQQQQQQQQQQQQQAVATAAASVQQSTSQQPTQGASGQTPQLFHSQTLTTAPLPGTTPLYPSPMTPMTPITPATPASESSGIVPQLQNIVSTVNLGCKLDLKTIALRARNAEYNPKRFAAVIMRIREPRTTALIFSSGKMVCTGAKSEEQSRLAARKYARVVQKLGFPAKFLDFKIQNMVGSCDVKFPIRLEGLVLTHQQFSSYEPELFPGLIYRMIKPRIVLLIFVSGKVVLTGAKVRAEIYEAFENIYPILKGFRKTT
